Measurements taken from the supplement of paper PMC8728848.
Some of the results follow.

Tests used:
Experiment in all cases: glycan array binding signal (z-score within array); higher = stronger binding
Settings in all cases: glycan notation: IUPAC condensed, linker removed
[1] = target: Fuc(a1-2)[GalNAc(b1-3)]Gal
Method in brief: (§1)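 Glycan array data were curated from 3228 arrays in the Consortium for Functional Glycomics database and kept only where the protein sequence was available. Glycan names were converted to IUPAC-condensed notation, and columns mapping to the same glycan were averaged. The binding signal is a within-array Z-score, averaged across arrays of the same protein sequence at different concentrations or buffers and across linkers. Negative Z-scores can be read as non-binding.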

[2] = target: Fuc(a1-3)GlcNAc
Method in brief: as §1

[3] = target: Fuc(a1-3)[Gal(b1-4)]Glc6S
Method in brief: as §1

[4] = target: Fuc(a1-3)[Gal(b1-4)]GlcNAc
Method in brief: as §1

[5] = target: Fuc(a1-3)[Gal(b1-4)]GlcNAc(b1-2)Man
Method in brief: as §1

[6] = target: Fuc(a1-3)[Gal(b1-4)]GlcNAc(b1-2)Man(a1-3)[Fuc(a1-3)[Gal(b1-4)]GlcNAc(b1-2)Man(a1-6)]Man(b1-4)GlcNAc(b1-4)GlcNAc
Method in brief: as §1

[7] = target: Fuc(a1-3)[Gal(b1-4)]GlcNAc(b1-2)Man(a1-3)[Fuc(a1-3)[Gal(b1-4)]GlcNAc(b1-2)Man(a1-6)]Man(b1-4)GlcNAc(b1-4)[Fuc(a1-6)]GlcNAc
Method in brief: as §1

[8] = target: Fuc(a1-3)[Gal(b1-4)]GlcNAc(b1-3)Gal(b1-3)[Fuc(a1-4)]GlcNAc
Method in brief: as §1

[9] = target: Fuc(a1-3)[Gal(b1-4)]GlcNAc(b1-3)Gal(b1-4)[Fuc(a1-3)]GlcNAc
Method in brief: as §1

[10] = target: Fuc(a1-3)[Gal(b1-4)]GlcNAc(b1-3)Gal(b1-4)[Fuc(a1-3)]GlcNAc(b1-3)Gal(b1-4)[Fuc(a1-3)]GlcNAc
Method in brief: as §1

[11] = target: Fuc(a1-3)[Gal(b1-4)]GlcNAc(b1-3)GalNAc
Method in brief: as §1

[12] = target: Fuc(a1-3)[Gal(b1-4)]GlcNAc(b1-4)Gal(b1-4)[Fuc(a1-3)]GlcNAc
Method in brief: as §1

[13] = target: Fuc(a1-3)[Gal(b1-4)]GlcNAc(b1-4)Gal(b1-4)[Fuc(a1-3)]GlcNAc(b1-4)Gal(b1-4)[Fuc(a1-3)]GlcNAc
Method in brief: as §1

[14] = target: Fuc(a1-3)[Gal(b1-4)]GlcNAc(b1-6)GalNAc
Method in brief: as §1

[15] = target: Fuc(a1-3)[Gal(b1-4)]GlcNAc(b1-6)[Gal(b1-3)GlcNAc(b1-3)]Gal(b1-4)Glc
Method in brief: as §1

[16] = target: Fuc(a1-3)[Gal(b1-4)]GlcNAc6S
Method in brief: as §1

[17] = target: Fuc(a1-3)[Gal3S(b1-4)]Glc
Method in brief: as §1

[18] = target: Fuc(a1-3)[Gal3S(b1-4)]GlcNAc
Method in brief: as §1

[19] = target: Fuc(a1-3)[Gal3S(b1-4)]GlcNAc6S
Method in brief: as §1

[20] = target: Fuc(a1-3)[GalNAc(b1-4)]GlcNAc
Method in brief: as §1

[21] = target: Fuc(a1-3)[GalNAc(b1-4)]GlcNAc6S
Method in brief: as §1

[22] = target: Fuc(a1-4)GlcNAc
Method in brief: as §1

[23] = target: Fuc(b1-3)GlcNAc
Method in brief: as §1

[24] = target: Gal(a1-2)Gal
Method in brief: as §1

[25] = target: Gal(a1-3)Gal
Method in brief: as §1

[26] = target: Gal(a1-3)Gal(b1-3)GlcNAc
Method in brief: as §1

[27] = target: Gal(a1-3)Gal(b1-3)GlcNAc(b1-2)Man
Method in brief: as §1

[28] = target: Gal(a1-3)Gal(b1-3)GlcNAc(b1-2)Man(a1-3)[Gal(a1-3)Gal(b1-3)GlcNAc(b1-2)Man(a1-6)]Man(b1-4)GlcNAc(b1-4)GlcNAc
Method in brief: as §1

[29] = target: Gal(a1-3)Gal(b1-3)GlcNAc(b1-3)GalNAc
Method in brief: as §1

[30] = target: Gal(a1-3)Gal(b1-3)GlcNAc(b1-6)GalNAc
Method in brief: as §1

[31] = target: Gal(a1-3)Gal(b1-3)[Fuc(a1-4)]GlcNAc(b1-2)Man(a1-3)[Gal(a1-3)Gal(b1-3)[Fuc(a1-4)]GlcNAc(b1-2)Man(a1-6)]Man(b1-4)GlcNAc(b1-4)GlcNAc
Method in brief: as §1

[32] = target: Gal(a1-3)Gal(b1-4)Glc
Method in brief: as §1

[33] = target: Gal(a1-3)Gal(b1-4)GlcNAc
Method in brief: as §1

[34] = target: Gal(a1-3)Gal(b1-4)GlcNAc(b1-2)Man
Method in brief: as §1

[35] = target: Gal(a1-3)Gal(b1-4)GlcNAc(b1-2)Man(a1-3)[Gal(a1-3)Gal(b1-4)GlcNAc(b1-2)Man(a1-6)]Man(b1-4)GlcNAc(b1-4)GlcNAc
Method in brief: as §1

[36] = target: Gal(a1-3)Gal(b1-4)GlcNAc(b1-3)GalNAc
Method in brief: as §1

[37] = target: Gal(a1-3)Gal(b1-4)GlcNAc(b1-6)GalNAc
Method in brief: as §1

[38] = target: Gal(a1-3)Gal(b1-4)[Fuc(a1-3)]GlcNAc
Method in brief: as §1

[39] = target: Gal(a1-3)Gal(b1-4)[Fuc(a1-3)]GlcNAc(b1-2)Man(a1-3)[Gal(a1-3)Gal(b1-4)[Fuc(a1-3)]GlcNAc(b1-2)Man(a1-6)]Man(b1-4)GlcNAc(b1-4)GlcNAc
Method in brief: as §1

[40] = target: Gal(a1-3)GalNAc
Method in brief: as §1

[41] = target: Gal(a1-3)[Gal(a1-4)]Gal(b1-4)GlcNAc
Method in brief: as §1

[42] = target: Gal(a1-4)Gal(b1-3)GlcNAc(b1-2)Man(a1-3)[Gal(a1-4)Gal(b1-3)GlcNAc(b1-2)Man(a1-6)]Man(b1-4)GlcNAc(b1-4)GlcNAc
Method in brief: as §1

[43] = target: Gal(a1-4)Gal(b1-4)Glc
Method in brief: as §1

[44] = target: Gal(a1-4)Gal(b1-4)GlcNAc
Method in brief: as §1

[45] = target: Gal(a1-4)Gal(b1-4)GlcNAc(b1-2)Man(a1-3)[Gal(a1-4)Gal(b1-4)GlcNAc(b1-2)Man(a1-6)]Man(b1-4)GlcNAc(b1-4)GlcNAc
Method in brief: as §1

B1: SJA (Sophora japonica) (protein)
chain: FLGLFNSGGYSSSYQIVAVEFDTYINEWDPKTRHIGIDINSINSTKTVTWGWENGEVAIVLISYKAATETLTVSLTYPSSQTSYILSAAVDLKSILPEWVRIGF
In the case of B1, the “glycan array binding signal (z-score)” value [1] is reported as -0.221, the “glycan array binding signal (z-score)” value [2] is reported as -0.221 and the “glycan array binding signal (z-score)” value [3] is reported as 0.165. The “glycan array binding signal (z-score)” value [4] was -0.171, the “glycan array binding signal (z-score)” value [5] was -0.248 and the “glycan array binding signal (z-score)” value [6] was -0.2. The “glycan array binding signal (z-score)” value [7] was -0.25, the “glycan array binding signal (z-score)” value [8] was -0.077 and the “glycan array binding signal (z-score)” value [9] was -0.225. The “glycan array binding signal (z-score)” value [10] was -0.319, the “glycan array binding signal (z-score)” value [11] was -0.212 and the “glycan array binding signal (z-score)” value [12] was -0.181. For the same binder, the “glycan array binding signal (z-score)” value [13] was -0.187, the “glycan array binding signal (z-score)” value [14] was -0.083 and the “glycan array binding signal (z-score)” value [15] was -0.104. For the same binder, the “glycan array binding signal (z-score)” value [16] was -0.016, the “glycan array binding signal (z-score)” value [17] was -0.21 and the “glycan array binding signal (z-score)” value [18] was 0.064. The “glycan array binding signal (z-score)” value [19] was -0.061, the “glycan array binding signal (z-score)” value [20] was -0.273 and the “glycan array binding signal (z-score)” value [21] was 0. For the same binder, the “glycan array binding signal (z-score)” value [22] was -0.331, the “glycan array binding signal (z-score)” value [23] was -0.236 and the “glycan array binding signal (z-score)” value [24] was -0.201. For the same binder, the “glycan array binding signal (z-score)” value [25] was -0.043, the “glycan array binding signal (z-score)” value [26] was -0.041 and the “glycan array binding signal (z-score)” value [27] was -0.284. For the same binder, the “glycan array binding signal (z-score)” value [28] was -0.04, the “glycan array binding signal (z-score)” value [29] was -0.269 and the “glycan array binding signal (z-score)” value [30] was -0.312. For the same binder, the “glycan array binding signal (z-score)” value [31] was -0.094, the “glycan array binding signal (z-score)” value [32] was -0.143 and the “glycan array binding signal (z-score)” value [33] was -0.122. The “glycan array binding signal (z-score)” value [34] was -0.262, the “glycan array binding signal (z-score)” value [35] was -0.006 and the “glycan array binding signal (z-score)” value [36] was -0.133. For the same binder, the “glycan array binding signal (z-score)” value [37] was -0.299, the “glycan array binding signal (z-score)” value [38] was -0.112 and the “glycan array binding signal (z-score)” value [39] was -0.159. For the same binder, the “glycan array binding signal (z-score)” value [40] was -0.144, the “glycan array binding signal (z-score)” value [41] was -0.145 and the “glycan array binding signal (z-score)” value [42] was -0.339. For the same binder, the “glycan array binding signal (z-score)” value [43] was -0.134, the “glycan array binding signal (z-score)” value [44] was -0.194 and the “glycan array binding signal (z-score)” value [45] was -0.382.
